# Laboratory results: PubChem BioAssay AID1745845 (National Center for Advancing Translational Sciences (NCATS), 2022)
# “And” between values parts separate entries of the source, which are not always exact repeats. Equal entries are not always repeated. Out of some 360,000 compounds screened, about 2,600 (0.72%) were called active. This list was built around the results that the source calls inconclusive (neither active nor inactive); the mix of calls is not that of the screen. The call rests on the fitted dose curve; in most records, active means well fitted inhibition curve with a large enough effect; inconclusive means small, poorly fitted or top-dose-only effect; inactive means no such curve, though single readings can be large or run the other way. Potencies beside an inconclusive call are fits to weak or partial responses and may not hold up.
# Experiment: Primary qHTS for Inhibitors of ATXN expression; further: nearly all actives have a fitted effect of over 55% in size
# Conditions: HEK-293 ATXN2-luciferase reporter, luminescence, 24 h; activity change, negative = inhibition: at 57 µM (top of the series)
# How it was run: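 ATXN2-luciferase reporter cells (luciferase flanked by upstream and downstream ATXN2 gene portions) were treated 24 h at 37 °C with compounds at up to 57 uM. SteadyGlo luminescence gave expression; GF-AFC fluorescence gave viability.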
# On the % scale 0 is the no-effect control and ±100 the full control effect; potency means the concentration at half of the fitted maximal effect; tags describe the fitted curve by direction and shape.
Structure (SMILES),Potency,"activity change, negative = inhibition"
O=C(/C=C/c1cccc(C(F)(F)F)c1)Nc1cccc(C(F)(F)F)c1,"inconclusive: 31.6 µM [inhibitor, single point]",
Cc1cc(F)ccc1S(=O)(=O)Nc1ccc2oc3c(c2c1)CC(C)CC3 (centres undefined),"inconclusive: 35.5 µM [inhibitor, single point]",
Cc1cc(C)cc(NC(=S)Nc2ccc(Cl)c(Cl)c2)c1,"inconclusive: 15.8 µM [inhibitor, partial curve, poor fit]",
COc1cc(OC)cc(-c2cc3nc(C)c(CCC(=O)NCc4ccccc4)c(C)n3n2)c1,active: 8.91 µM,
CCC(C)Sc1cccc(-c2nc3cc(C)ccn3c2NC2CCCCC2)c1 (centres undefined),"inconclusive: 39.8 µM [inhibitor, single point]",
COc1ccc(-c2noc(CSc3nnc(C)n3-c3ccc(C)cc3)n2)cc1OC,"inconclusive: 20 µM [inhibitor, partial curve, poor fit]",
CCOC(=O)N1CCN(S(=O)(=O)c2ccc3[nH]c(=O)oc3c2)CC1,,inactive: -12.5%
COc1ccc(C(=O)NC(=S)NNC(=O)Cc2cccs2)cc1,"inconclusive: 28.2 µM [inhibitor, partial curve, poor fit]",
CCOC(=O)c1c(C)oc2ncnc(Nc3ccc(OC)cc3OC)c12,,inactive: 1.36%
O=C1N[C@H](Cc2ccccc2)COC(=O)[C@H](Cc2ccc(F)cc2)CC/C=C/C[C@H]1CC(=O)N(CCO)Cc1ccccc1,"inconclusive: 25.1 µM [inhibitor, single point]",
S=C(Nc1ccc(Cl)cc1Cl)Nc1ccccc1Oc1ccccc1,,inactive: -2.35%
CCC(C)(C)NC(=O)C(c1ccc(C)cc1)N(CC1CCCO1)C(=O)c1csnn1 (centres undefined),,inactive: 1.36%
Cc1ccc2[nH]c(C)c(/C=C/c3cc[n+](C)cc3)c2c1,,inconclusive: -55% [inhibitor]
C/C(=N\NC(=S)NCc1ccccc1)c1ccccc1,,inactive: 17.5%
COc1ccc(S(=O)(=O)Nc2cccc3c2O[C@H](CN(C)S(=O)(=O)c2ccccc2)[C@@H](C)CN([C@H](C)CO)C3=O)cc1,,inactive: 1.76%
Cc1cc(=O)[nH]c(N/N=C/c2ccccn2)n1,"inconclusive: 2.82 µM [inhibitor, full curve]",
C=CCN1c2ccccc2C(=O)CS1(=O)=O,,inactive: 5.64%
O=C1c2ccccc2C(=O)N1CCC#C/C=C1\c2ccccc2C(=O)N1c1ccccc1,,inactive: -15.5%
O=C(NCC1CCCO1)Nc1cccc(Cl)c1 (centres undefined),,inactive: 9.63%
S=C(NCc1ccccc1)NCc1cccc(CNC(=S)NCc2ccccc2)c1,,inactive: -23.1%
COc1ccc(CC(N)c2csc(Nc3cc(Oc4ccccc4)ncn3)n2)cc1 (centres undefined),"inconclusive: 39.8 µM [inhibitor, single point]",
Clc1ccc(CNc2ccc(CNc3ncn[nH]3)cc2)c(Cl)c1,,inactive: -34.1%
Cc1ccc(NC(=O)CC(=O)c2ccc([N+](=O)[O-])cc2)cc1S(=O)(=O)Nc1cccc(Cl)c1,"inconclusive: 39.8 µM [inhibitor, single point]",

Structure (SMILES),Potency,"activity change, negative = inhibition"
C[C@H](NC(=O)c1nc[nH]c1C(=O)NCc1ccc(CNC(=O)OC(C)(C)C)cc1)c1ccccc1,"inconclusive: 39.8 µM [inhibitor, single point]",
CN(C)S(=O)(=O)c1cccc(NC(=O)c2ccc(OC(F)(F)F)cc2)c1,"inconclusive: 3.98 µM [inhibitor, partial curve, poor fit]",
Cc1ccc(/C=C2\SC(=S)N(CCCC(=O)Nc3ccc(O)cc3)C2=O)cc1,active: 10 µM,
O=[N+]([O-])c1ccc(C[n+]2ccccc2)cc1,,inactive: 2.12%
CCCc1[nH]nc2c1C(/C(C)=C/c1ccccc1)C(C#N)=C(N)O2 (centres undefined),"inconclusive: 25.1 µM [inhibitor, partial curve, poor fit]",
O=C(N/N=C/c1cc(Cl)ccc1O)c1cccnc1,"inconclusive: 12.6 µM [inhibitor, single point]",
C(=C\c1ccccc1)/CN1CCN(C(c2ccccc2)c2nnnn2-c2ccc3c(c2)OCCO3)CC1 (centres undefined),,inactive: -27.2%
S=C(Nc1ccccc1)Nc1nc2ccccc2n1CCOc1ccc(Cl)cc1,"inconclusive: 39.8 µM [inhibitor, single point]",
COCCNc1nc(NCc2ccc(C(C)C)cc2)c2sccc2n1,"inconclusive: 31.6 µM [inhibitor, single point]",
COc1ccccc1N(Cc1ccccc1)S(=O)(=O)c1cccc(C(=O)N2CCCCC2)c1,"inconclusive: 35.5 µM [inhibitor, single point]",
CNC(=S)Nc1cccc(C(C)=O)c1,,inactive: 1.88%
COC1CC(C)C(OC)c2cc(O)cc(c2O)NC(=O)C(C)=CC=CC(C)C(OC(N)=O)C(C)=CC(C)C1OC (centres undefined),active: 3.77 µM,
COc1cccc(C2CC(=O)Nc3c2c(=O)n(C)c2ncnn32)c1OC (centres undefined),,inactive: 1.33%
CC(/C=C/c1ccccc1F)=N\NC(=O)c1ccc(Cl)cc1,,inconclusive: -41.5% [inhibitor]
CCN(CC)CCn1nc2c3c(cccc3c1=O)-c1ccccc1-2,active: 10 µM,
S=C(NCCCN1CCOCC1)Nc1ccc(Nc2ccccc2)cc1,,inactive: 3.5% [at 11.3 µM]
CCOc1cccc(CNc2ccc(O)cc2)c1OCc1ccccc1Cl,"inconclusive: 17.8 µM [inhibitor, partial curve, poor fit] and active: 11.2 µM",
Cc1ccc(C)c(S(=O)(=O)N2CCN(C(=O)CNC(=O)c3ccc4ccccc4c3)CC2)c1,,inactive: -35.7%
CC1CCC(C(C)C)C(OC(=O)C[n+]2cc(-c3ccc(Cl)cc3)n3c2CCC3)C1 (centres undefined),"inconclusive: 20 µM [inhibitor, partial curve, poor fit]",
Cc1cc(C)cc(NC(=O)CN(C)S(=O)(=O)c2ccc3[nH]c4c(c3c2)CCCC4)c1,"inconclusive: 39.8 µM [inhibitor, single point]",
O=C(CNC(=O)c1ccc(Br)o1)Nc1cccc(-c2cnc3ccccc3n2)c1,"inconclusive: 39.8 µM [inhibitor, single point]",
CCCc1nc2ccccc2c(=O)n1/N=C/c1c(C)[nH]n(-c2ccc(C)cc2)c1=O,"inconclusive: 39.8 µM [inhibitor, single point]",
COc1c(N2CCN(C(=S)NCc3ccccc3)C(C)C2)c(F)cc2c(=O)c(C(=O)O)cn(C3CC3)c12 (centres undefined),,inactive: -10.2%

Structure (SMILES),Potency,"activity change, negative = inhibition"
Cc1n[nH]c(C)c1S(=O)(=O)N(CC(=O)NCc1ccccc1Cl)c1ccc(C(C)C)cc1,"inconclusive: 39.8 µM [inhibitor, single point]",
COc1ccc(C(=O)NC2CCN(C(=S)Nc3cc(C)cc(C)c3)CC2)cc1,,inactive: 2.31%
O=C(NCCc1csc(-c2cccc(F)c2)n1)c1ccc(Br)o1,"inconclusive: 28.2 µM [inhibitor, single point]",
O=C(Nc1ccc2c(c1)N(C1CCCC1)C(=O)c1ccccc1S2)c1cccc(F)c1,,inactive: 0.131%
Nc1[nH]c(C(=O)c2ccccc2)c(-c2c(F)cccc2F)c1C(=O)c1ccc(Cl)c(Cl)c1,"inconclusive: 39.8 µM [inhibitor, single point]",
Cc1ccc2sc(N(CCCN(C)C)C(=O)CN3C(=O)c4ccccc4C3=O)nc2c1C,"inconclusive: 25.1 µM [inhibitor, single point]",
O=C1C(=O)c2cccnc2-c2ncccc21,active: 0.501 µM,
Cc1ccnc(NC(=O)CCC(=O)c2cccs2)c1,"inconclusive: 28.2 µM [inhibitor, single point]",
CCOC(=O)N1CCC(NC(=O)CCc2c(C)nc3c(c(C)nn3C(C)(C)C)c2C)CC1,"inconclusive: 39.8 µM [inhibitor, single point]",
Cc1ccccc1OCc1ccc(-c2nc(C#N)c(N3CCN(C)CC3)o2)o1,"inconclusive: 22.4 µM [inhibitor, single point]",
COc1ccc(C2(C)ON(c3ccccc3C(F)(F)F)C2=O)cc1 (centres undefined),"inconclusive: 20 µM [inhibitor, partial curve]",
COc1cccc(C2C=C(c3ccc(OC)cc3OC)Nc3nnnn32)c1 (centres undefined),"inconclusive: 8.91 µM [inhibitor, partial curve, poor fit]",
Cn1c(N)c(C(=O)CSc2nn(-c3ccc(F)cc3)c(=S)s2)c(=O)n(C)c1=O,"inconclusive: 14.1 µM [inhibitor, partial curve, poor fit]",
CC(C)C[C@H](N)c1cn([C@@H](CCCCN)C(=O)N2CCNCC2)nn1,active: 1.58 µM,
COc1cc(NC(=O)c2cccs2)c(OC)cc1NC(=O)CCC(=O)Nc1ccc2ncccc2c1,"inconclusive: 17.8 µM [inhibitor, partial curve, poor fit]",
C(=N\Nc1nc2ccccc2[nH]1)/c1cccc2nccnc12,"inconclusive: 2.82 µM [inhibitor, full curve, poor fit]",
CCCCOc1ccc(C(=O)NCCc2sc(-c3cccc(F)c3)nc2C)cc1,,inactive: -26.9%
CC(C)CC1C(=O)N(Cc2cn(CCC3OCCO3)nn2)CCS(=O)(=O)N1Cc1ccc(-c2ccc(Cl)c(Cl)c2)cc1 (centres undefined),"inconclusive: 31.6 µM [inhibitor, single point]",
Cc1ccc2[nH]cc(C(=O)CCl)c2c1,"inconclusive: 37.7 µM [inhibitor, single point]",
Cc1c(Cl)sn(-c2ccc(Cl)cc2)c1=O,active: 8.91 µM,
CCC(CC)C(=O)N(C)c1c(C)nc2c(OCc3ccc(Cl)cc3Cl)cccn12,"inconclusive: 28.2 µM [inhibitor, single point]",
COC(=O)/C(=C\C(=O)c1ccccc1)Nc1cccc(C(F)(F)F)c1,,inactive: 47.2%
CCCCCCN1C[C@@H](O)[C@H](n2cc(C3CC3)nn2)C[C@@H]1c1ccc(Cl)cc1,"inconclusive: 39.8 µM [inhibitor, partial curve, poor fit]",
